Residue numbers refer to the chain shown, from its start. In names and notes the source's numbering stands. Like-named read-outs stand apart in the source and are kept apart here. Results are given in words; binding and its absence hold for the method and conditions named. For some of these results: In cells and extracts the contact can be indirect. Some results given as binding are weak or reduced against the parent protein; the word gives no strength. One block for each molecule: values may come before it.
What was measured:
[1] = target: MYC3 (Arabidopsis thaliana) (UniProt Q9FIP9); assay: split-ubiquitin assay; chemically inducible dimerization split-ubiquitin system in yeast NMY51 TOR1-1 Δfpr1; bHLH as bait (pFKBP12), MYB as prey (pFRB); drop tests of three colonies on SD-AHLW, 2 days at 30°C; SD-AHLW+Rapa as positive control
[2] = target: MYC4 (Arabidopsis thaliana) (UniProt O49687); assay: as above
[3] = target: T1, GL3 (Arabidopsis thaliana) (UniProt Q9FN69); assay: as above
T1 sequence: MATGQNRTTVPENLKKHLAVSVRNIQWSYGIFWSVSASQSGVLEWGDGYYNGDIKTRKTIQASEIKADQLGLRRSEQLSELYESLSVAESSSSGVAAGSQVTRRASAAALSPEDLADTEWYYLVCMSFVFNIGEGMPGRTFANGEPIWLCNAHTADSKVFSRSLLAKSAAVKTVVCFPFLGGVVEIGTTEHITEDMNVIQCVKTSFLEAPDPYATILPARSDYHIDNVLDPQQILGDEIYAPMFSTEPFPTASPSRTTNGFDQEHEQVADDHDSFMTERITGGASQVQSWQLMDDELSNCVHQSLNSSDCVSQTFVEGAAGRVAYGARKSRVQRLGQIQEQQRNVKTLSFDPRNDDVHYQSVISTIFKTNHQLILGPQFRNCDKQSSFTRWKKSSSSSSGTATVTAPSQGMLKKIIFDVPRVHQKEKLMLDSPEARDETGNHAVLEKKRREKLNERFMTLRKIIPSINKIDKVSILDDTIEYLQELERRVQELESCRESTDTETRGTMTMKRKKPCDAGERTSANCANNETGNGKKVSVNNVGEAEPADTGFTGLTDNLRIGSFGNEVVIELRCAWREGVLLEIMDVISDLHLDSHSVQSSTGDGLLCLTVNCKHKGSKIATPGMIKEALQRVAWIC

Protein sequences, listed by entry. Tags and fused reporters are not part of them.
UniProt Q9FIP9: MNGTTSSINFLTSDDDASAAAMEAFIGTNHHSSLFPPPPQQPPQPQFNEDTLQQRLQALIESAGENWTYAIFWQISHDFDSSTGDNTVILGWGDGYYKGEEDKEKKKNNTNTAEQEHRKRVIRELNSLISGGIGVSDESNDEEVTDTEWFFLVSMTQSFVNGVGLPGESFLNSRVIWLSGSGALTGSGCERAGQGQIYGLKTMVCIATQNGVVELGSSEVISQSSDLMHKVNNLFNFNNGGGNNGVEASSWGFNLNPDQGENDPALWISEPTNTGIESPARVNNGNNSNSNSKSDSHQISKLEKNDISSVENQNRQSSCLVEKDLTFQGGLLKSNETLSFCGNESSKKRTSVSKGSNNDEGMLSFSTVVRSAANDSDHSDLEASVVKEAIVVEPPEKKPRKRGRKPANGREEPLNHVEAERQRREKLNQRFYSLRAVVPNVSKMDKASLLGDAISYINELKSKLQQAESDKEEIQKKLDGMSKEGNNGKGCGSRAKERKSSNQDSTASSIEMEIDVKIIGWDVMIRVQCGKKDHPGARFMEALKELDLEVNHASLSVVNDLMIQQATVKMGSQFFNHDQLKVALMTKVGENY
UniProt O49608: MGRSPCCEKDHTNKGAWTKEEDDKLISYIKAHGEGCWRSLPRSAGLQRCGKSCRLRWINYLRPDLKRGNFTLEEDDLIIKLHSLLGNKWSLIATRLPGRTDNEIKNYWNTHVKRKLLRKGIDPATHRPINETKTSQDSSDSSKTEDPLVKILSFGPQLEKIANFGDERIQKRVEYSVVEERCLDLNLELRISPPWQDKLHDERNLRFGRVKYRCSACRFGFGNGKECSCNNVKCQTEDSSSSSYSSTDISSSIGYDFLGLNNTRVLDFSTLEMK

[4] = target: MYC3 (Arabidopsis thaliana) (UniProt Q9FIP9); assay: as above; remark: listed apart in the source
[5] = target: MYC4 (Arabidopsis thaliana) (UniProt O49687); assay: as above; remark: listed apart in the source
[6] = target: T2, L190A-MIM peptide (F180-G201 of MYB29, L190A) (Arabidopsis thaliana) (UniProt Q9FLR1); assay: BLI; biotinylated peptide (1 μM) immobilised on streptavidin biosensors; MYC4Nt 130 to 0.1 μM; PBS pH 7.4, 1 mM DTT, 0.05% bovine serum albumin; BLItz; equilibrium responses fitted to a Hill equation; both purified
T2 sequence (peptide, biotin on the N-terminus): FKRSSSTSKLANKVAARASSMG

binding [1]: no binding | binding [2]: no binding
Molecule: MYB32 (from UniProt O49608 1-274)

binding [3]: binds
B1: MYB75 DBD (residues M1-P114) (domain or fragment, UniProt Q9FE25 1-114)
chain: MEGSSKGLRKGAWTTEEDSLLRQCINKYGEGKWHQVPVRAGLNRCRKSCRLRWLNYLKPSIKRGKLSSDEVDLLLRLHRLLGNRWSLIAGRLPGRTANDVKNYWNTHLSKKHEP

binding [3]: no binding
B2: MYB75 non-MYB region (residues K110-D248) (domain or fragment, UniProt Q9FE25 110-248)
chain: KKHEPCCKIKMKKRDITPIPTTPALKNNVYKPRPRSFTVNNDCNHLNAPPKVDVNPPCLGLNINNVCDNSIIYNKDKKKDQLVNNLIDGDNMWLEKFLEESQEVDILVPEATTTEKGDTLAFDVDQLWSLFDGETVKFD

binding [4]: no binding | binding [5]: no binding | binding [3]: binds
B3: MYB75 full-length (protein, UniProt Q9FE25 1-248)
chain: MEGSSKGLRKGAWTTEEDSLLRQCINKYGEGKWHQVPVRAGLNRCRKSCRLRWLNYLKPSIKRGKLSSDEVDLLLRLHRLLGNRWSLIAGRLPGRTANDVKNYWNTHLSKKHEPCCKIKMKKRDITPIPTTPALKNNVYKPRPRSFTVNNDCNHLNAPPKVDVNPPCLGLNINNVCDNSIIYNKDKKKDQLVNNLIDGDNMWLEKFLEESQEVDILVPEATTTEKGDTLAFDVDQLWSLFDGETVKFD

binding [6]: no binding (tested: 130 μM)
B4: MYC4 N-terminal domain (L55-N253) (domain or fragment, Arabidopsis thaliana, UniProt O49687 55-253, looked up)
chain: LPQVNEDNLQQRLQALIEGANENWTYAVFWQSSHGFAGEDNNNNNTVLLGWGDGYYKGEEEKSRKKKSNPASAAEQEHRKRVIRELNSLISGGVGGGDEAGDEEVTDTEWFFLVSMTQSFVKGTGLPGQAFSNSDTIWLSGSNALAGSSCERARQGQIYGLQTMVCVATENGVVELGSSEIIHQSSDLVDKVDTFFNFN
notes: MYC4, Arabidopsis thaliana, N-terminal domain with the JID, residues L55-N253 (AA55-253); recombinant protein of 22.7 kDa; expressed from pET52u; source: E. coli BL21(DE3), purified (HisTrap HP IMAC, dialysed to PBS pH 7.4 with 1 mM DTT); not shown: 6xHis, C-terminal, kept

binding [4]: binds | binding [5]: binds | binding [3]: no binding
B5: MYB29 full-length (protein, UniProt Q9FLR1 1-336)
chain: MSRKPCCVGEGLKKGAWTAEEDKKLISYIHEHGEGGWRDIPQKAGLKRCGKSCRLRWANYLKPDIKRGEFSYEEEQIIIMLHASRGNKWSVIARHLPKRTDNEIKNYWNTHLKKLLIDKGIDPVTHKPLAYDSNPDEQSQSGSISPKSLPPSSSKNVPEITSSDETPKYDASLSSKKRCFKRSSSTSKLLNKVAARASSMGTILGASIEGTLISSTPLSSCLNDDFSETSQFQMEEFDPFYQSSEHIIDHMKEDISINNSEYDFSQFLEQFSNNEGEEADNTGGGYNQDLLMSDVSSTSVDEDEMMQNITGWSNYLLDHSDFNYDTSQDYDDKNFI

binding [4]: no binding | binding [5]: no binding
B6: MYB29 with mutated MIM (L190K, K192N, A194Y) (protein, UniProt Q9FLR1 1-336)
chain: B5 chain with L190K, K192N, A194Y

Reference: PMC6765112, “Specificity of MYB interactions relies on motifs in ordered and disordered contexts” (Nucleic Acids Research, 2019)
